Assay results: article PMC4336329 (PLoS ONE, 2015)
The whole screen tested about 310,000 compounds, of which about 2,200 (0.71%) showed an effect of 50% or more. Effects have a minus sign here. Some of the results follow.

molecular target: human ether-à-go-go-related gene (hERG) potassium channel (human, UniProt Q12809); assay: primary screen, population patch clamp on CHO cells stably expressing hERG
Sequence (Q12809 whole entry, looked up): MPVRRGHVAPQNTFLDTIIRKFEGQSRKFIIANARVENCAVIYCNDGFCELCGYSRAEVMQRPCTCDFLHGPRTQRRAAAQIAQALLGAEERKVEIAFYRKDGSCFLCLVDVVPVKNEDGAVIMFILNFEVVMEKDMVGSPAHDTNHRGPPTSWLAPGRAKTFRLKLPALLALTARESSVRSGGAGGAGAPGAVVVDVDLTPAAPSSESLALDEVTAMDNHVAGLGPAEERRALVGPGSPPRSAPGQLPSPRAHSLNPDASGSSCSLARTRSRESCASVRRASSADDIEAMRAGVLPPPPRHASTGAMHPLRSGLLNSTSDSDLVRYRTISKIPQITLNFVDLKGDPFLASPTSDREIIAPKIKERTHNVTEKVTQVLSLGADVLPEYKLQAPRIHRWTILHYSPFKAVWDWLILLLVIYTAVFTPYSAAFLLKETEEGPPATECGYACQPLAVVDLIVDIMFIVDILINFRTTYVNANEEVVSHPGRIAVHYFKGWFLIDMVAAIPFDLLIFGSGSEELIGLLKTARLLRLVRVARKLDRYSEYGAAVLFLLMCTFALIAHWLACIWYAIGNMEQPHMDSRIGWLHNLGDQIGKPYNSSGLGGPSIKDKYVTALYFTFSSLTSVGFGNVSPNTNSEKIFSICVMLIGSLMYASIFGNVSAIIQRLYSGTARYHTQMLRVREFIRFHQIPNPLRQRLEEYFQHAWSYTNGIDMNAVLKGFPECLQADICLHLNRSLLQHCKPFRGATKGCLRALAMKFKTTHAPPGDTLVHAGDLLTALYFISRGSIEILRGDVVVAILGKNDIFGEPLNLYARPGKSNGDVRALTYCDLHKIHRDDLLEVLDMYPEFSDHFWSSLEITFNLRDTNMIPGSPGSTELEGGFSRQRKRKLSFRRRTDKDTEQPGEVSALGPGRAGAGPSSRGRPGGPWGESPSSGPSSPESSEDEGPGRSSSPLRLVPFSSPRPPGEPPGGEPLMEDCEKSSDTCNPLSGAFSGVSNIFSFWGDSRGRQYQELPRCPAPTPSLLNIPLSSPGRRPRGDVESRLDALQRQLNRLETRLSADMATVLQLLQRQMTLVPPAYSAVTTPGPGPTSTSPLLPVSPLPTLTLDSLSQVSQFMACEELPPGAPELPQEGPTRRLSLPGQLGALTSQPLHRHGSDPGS

SMILES	hERG current change (%, negative = inhibition) at 1uM [%]
COc1ccc(S(=O)(=O)N2CCN(C(=O)c3cc(C)oc3C)CC2)cc1	11.1
Cc1ccc(C2=NN(S(=O)(=O)c3ccccc3)C(c3ccco3)C2)cc1 (centres unmarked)	16
CCn1ncc(/C=C/C(=O)NCc2cnn(C)c2C)c1C	13.3
CC(C)(C)c1ccc(C(=O)c2c[nH]c(C(=O)NCCCN3CCOCC3)c2)cc1	12.1
CC1CCC(C(=O)c2c(O)c3ccccc3oc2=O)CC1 (centres unmarked)	14.6
O=C(Nc1ccc(NC(=O)c2cc3ccccc3o2)cc1)c1ccco1	25.1
NC(=NCCc1ccccc1)NS(=O)(=O)c1ccc2ccccc2c1	11.7
Cc1ccc(C(CC(=O)c2ccco2)SCCO)cc1 (centres unmarked)	11.5
COC(=O)C1(Cc2cc(-c3cccnc3)no2)CCN(C(=O)OC(C)(C)C)CC1	14.9
COCCNC(=O)CSC1=N/C(=C/c2ccc(Cl)c(Cl)c2)C(=O)N1c1ccccc1F	12.3
COc1cc(NC(=O)c2cc3c(CO)cnc(C)c3oc2=Nc2cccc(C(N)=O)c2)cc(OC)c1	6.02
COc1ccc(C(CNC(=O)c2c(C)nn(Cc3ccc(C)cc3)c2Cl)N2CCOCC2)cc1 (centres unmarked)	6.02
C/C(CC(=O)NC(C)(C)C)=N\NC(=O)COc1ccc(C)cc1Br	12.1
COc1ccccc1N(CC(=O)NCCSCc1ccc(C)cc1)S(=O)(=O)c1ccccc1	8
COc1nc(N(C)C)nc(-n2nnc(C(C)=O)c2C)n1	0.596
CC(=O)Nc1ccc(-c2nnc(SCc3c(C)cc(C)cc3C)n2C)cc1	11
O=C(Nc1nnc(-c2ccc3c(c2)OCCO3)o1)c1ccc(Cc2ccccc2)cc1	5.98
O=c1ccn(Cc2ccc(F)cc2)c2ccnc(C(F)(F)F)c12	0.268
Cc1cccc(CN2CCC(C(=O)Nc3ccc(Oc4cccnc4)cc3)CC2)c1	5.98

SMILES	hERG current change (%, negative = inhibition) at 1uM [%]
COP(=O)(OC)C(NC(=O)c1ccc(C)cc1)C(Cl)(Cl)Cl (centres unmarked)	10.1
CCS(=O)(=O)N1CCN(C2CCC(c3ccccc3)CC2)CC1.O=C(O)C(=O)O (centres unmarked)	-1.29
C=C(C)C1CC=C(C)/C(=N\NC(=O)CCC(=O)Nc2ccc(C)c(C)c2)C1 (centres unmarked)	17.3
Cc1ccccc1-c1ncc(CN2CCC(CO)(CCCc3ccccc3)CC2)cn1	15.6
Cc1cccn2cc(-c3ccc(Cl)cc3)nc12	17.9
Clc1ccc(C2C3=C(Nc4ncnn42)c2ccccc2CC3)cc1 (centres unmarked)	-10.7
Cc1csc(NC(=O)Cc2ccccc2Cl)n1	16.9
Cc1cccc(N2CCN(Cc3nc(CC4CC4)no3)CC2)n1	7.51
COc1ccc(N(CCC#N)S(=O)(=O)c2cccc3nsnc23)cc1	4.71
O=C(O)CCC(=O)N1N=C(c2ccccc2)CC1c1ccc2c(c1)OCO2 (centres unmarked)	11.1
O=C(COc1ccccc1Cl)NCCCN1CCOCC1	7
O=C(OCc1cncs1)c1ccccc1	20.4
CC(=O)OCC(=O)Nc1ccc(SC(F)F)cc1	1.43
Cc1ccc(C(C(=O)NCc2ccco2)N(C(=O)Cn2nnc3ccccc32)c2ccccc2)o1 (centres unmarked)	5.83
COc1ccc(NC(=O)c2sc3nc(N4CCOCC4)c4c(c3c2N)CC(C)(C)OC4)cc1	11.4
Cc1ccc(C)c(NC(=O)CSc2nnc(Cc3cccn3C)n2-c2ccc(F)cc2)c1	4.58
Cc1c(NS(=O)(=O)c2ccccc2)cc(Cl)c(O)c1C	7.8
Cn1nc(-c2ccccc2)c(COC(=O)c2cccc(Cl)c2)c1S(=O)(=O)c1ccccc1	1.22
Cc1cc(C)cc(N(CCC#N)C(=O)COC(=O)CNC(=O)c2sc3ccccc3c2Cl)c1	4.98

SMILES	hERG current change (%, negative = inhibition) at 1uM [%]
CCc1ccc2c(COC(=O)CNS(=O)(=O)c3ccc(NC(C)=O)cc3)cc(=O)oc2c1	3.34
CCOC(=O)c1c(C)n(Cc2ccco2)c2ccc(OC)cc12	-13.9
CCOP(=O)(OCC)c1nc(-c2ccccc2)oc1N1CCCCC1	10.5
Cc1ccc(Nc2nc(C)cs2)cc1	5.56
Nc1nc(NCCCN2CCOCC2)nc(Nc2ccc(Cl)cc2)c1[N+](=O)[O-]	14.8
O=C(CCC(=O)N1CCOCC1)Nc1nnc(C2CCCCC2)s1	8.33
CCn1c(CNc2cccc(Cl)c2)nnc1SCc1ccccc1	6.21
CC1(c2ccccc2)NC(=S)N2C1NC(=S)N2c1ccccc1 (centres unmarked)	15.5
CCC(Cc1ccccc1)NS(=O)(=O)c1ccc2c(c1)NC(=O)CS2 (centres unmarked)	5.69
CCN(CC)C(=O)COc1cc(C)cc2oc(=O)c3c(c12)CCCC3	10.3
O=C(NC1CCCCC1)NC1CC2CCC(C1)N2C(=O)NCc1ccccc1 (centres unmarked)	13.8
O=C(Nc1ccccc1)OCc1cc(-c2ccc(Cl)cc2)on1	17.9
CCOC(=O)C1=C(CNCc2ccc(C)cc2)NC(=O)NC1c1ccc(OC)cc1 (centres unmarked)	0.903
CCOC(=O)OC(C)OC(=O)[C@@H]1N2C(=O)[C@@H](NC(=O)[C@H](N)c3ccccc3)[C@H]2SC1(C)C.Cl (some centres unmarked)	13.2
O=C(CSc1nc(=O)n2ccccc2n1)NCCc1ccccc1	6.53
NC(=O)CSc1nnc(-c2cccs2)n1-c1ccccc1	15.3
COc1ccc(C(=O)NCCc2ccc(C)cc2)cc1OC1CCN(C(C)=O)CC1	9.4
O=c1[nH]c(O)c(N=Nc2ccc3c(c2)OCCO3)c(=O)[nH]1	15.6
